From patent US12377163B2, “Anti-B7H3 antibody-exatecan analog conjugate and medicinal use thereof” (JIANGSU HANSOH PHARMACEUTICAL GROUP CO., LTD, priority 2018, dated 2025)

Columns and labels:
[1] = tested on: U87MG cells; assay: In vitro cell proliferation test (CellTiter-Glo), U87MG; format: cell-based, human; conditions: 6 days, read-out: IC50, inhibition of cell proliferation, U87
Method: (§1) In this experiment, the inhibition effect of B7H3-ADC on cell proliferation was evaluated based on IC50 by detecting the intracellular ATP content.
(§2) U87MG cells (human brain astroblastoma, Chinese Academy of Sciences cell bank, Catalog #TCHu138), Calu-6 cells (lung cancer cells, ATCC, Catalog #ATCC@ HTB-56™), Detroit562 cells (human pharyngeal carcinoma cells, ATCC, Catalog #ATCC@ CCL-138™) and A498 cells (kidney cancer cells, ATCC, Catalog #ATCC@ HTB-44™) were cultured in EMEM medium containing 10% FBS, and passaged 2 to 3 times a week with a passage ratio of 1:3 or 1:6. […]
(§3) For passage, the medium was removed and the cell layer was washed with 5 mL of 0.25% trypsin, then the trypsin was removed and the cells were digested for 3 to 5 minutes in an incubator. […] The cells were counted, and the cell suspension was formulated to the corresponding density (U87MG cells: 500 cells/well; A-498 cells: 500 cells/well; A-375 cells: 300 cells/well; Calu-6 cells: 800 cells/well; detroit562 cells: 2000 cells/well; and CHO-K1 cells: 500 cells/well). […]
(§4) The samples to be tested were diluted with PBS or DMSO at a 3-fold ratio to 9 concentrations (the initial concentration of each ADC was 500 nM). […] The chemiluminescence signal value was read in Victor3, and the data was processed by GraphPad software.

[2] = tested on: CHOK1 cells; assay: In vitro cell proliferation test (CellTiter-Glo), CHO-K1; format: cell-based; conditions: 6 days, CellTiter-Glo; CHO-K1 does not express human B7H3; read-out: IC50, inhibition of cell proliferation, CHOK1
Method: (§5) Then the cells were resuspended by the addition of fresh medium. The cells were counted, and the cell suspension was formulated to the corresponding density (U87MG cells: 500 cells/well; […] 180 μL of cell suspension was added to a 96-well plate, and 200 μL of medium was added to the periphery of the 96-well plate. The plate was incubated for 24 hours in an incubator (37° C., 5% CO2). […] The samples were added to the plate, which was incubated for 6 days in the incubator (37° C., 5% CO2). 90 μl of CellTiter-Glo reagent was added to each well of the 96-well plate, and the plate was left to stand in the dark at room temperature for 10 minutes. The chemiluminescence signal value was read in Victor3, and the data was processed by GraphPad software.

[3] = tested on: Detroit562 cells; assay: In vitro cell proliferation test (CellTiter-Glo), Detroit562; format: cell-based, human; conditions: 6 days, CellTiter-Glo; read-out: IC50, inhibition of cell proliferation, Detroit562
Method: as §5, with “EMEM medium preparation: MEM medium (GE, CAT #SH30024.01), NEAA (sigma, CAT#M7145-100ML) and sodium pyruvate solution (sigma, CAT #S8636-100ML). […] Then” for “Then”

[4] = tested on: A498 cells; assay: In vitro cell proliferation test (CellTiter-Glo), A498; format: cell-based; conditions: 6 days, read-out: IC50, inhibition of cell proliferation, A498
Method: as §1, §2, §3, §4

[5] = tested on: human pharyngeal carcinoma pleural fluid metastatic cell Detroit 562 xenograft tumor; assay: Efficacy on Detroit562 xenograft tumor in nude mice; format: in vivo, BALB/c nude mice; conditions: for Averange tumor volume (mm^3) Day 0: Day 0 (grouping); for Tumor inhibition rate (%) on Day 28: vs negative control
From the text: BALB/c nude mice were used as the test animal to evaluate the efficacy of the ADC compound of the present disclosure on human pharyngeal carcinoma pleural fluid metastatic cell Detroit 562 xenograft tumor in nude mice.
2. Formulation Method: The Drugs were all Diluted and Formulated with PBS. 3. Test Animals
BALB/c nude mice (female, 6 to 7 weeks old) for test were inoculated subcutaneously with human pharyngeal carcinoma pleural fluid metastatic cell Detroit 562 cells. On Day 10 after the inoculation, the animals were randomly grouped with 8 animals per group (D0), and the drugs were administered by intraperitoneal injection once a week for 3 times. The tumor volume and body weight were measured 2 to 3 times a week, and the data were recorded. The calculation formula of tumor volume (V) is as follows: V=½×a×b^2 • wherein: • a and b represent length and width respectively.
Relative volume (RTV)=VT/V0
Tumor inhibition rate (%)=(CRTV−TRTV)/CRTV (%) • wherein V0 and VT represent the tumor volume at the beginning of the test and at the end of the test, respectively. CRTV and TRTV represent the relative tumor volume of the control group (negative control) and the test group at the end of the test, respectively. IV. Test Results

[6] = tested on: A375 cells; assay: In vitro cell proliferation test (CellTiter-Glo), A-375; format: cell-based; conditions: 6 days, read-out: IC50, inhibition of cell proliferation, A375
Method: as §1
A-375 (melanoma cells, ATCC, Catalog #ATCC@ CRL-1619™) was cultured in DMEM (GE, SH30243.01) medium containing 10% FBS, and passaged 2 to 3 times a week with a passage ratio of 1:3 or 1:6.
For passage, the medium was removed and the cell layer was washed with 5 mL of 0.25% trypsin, then the trypsin was removed and the cells were digested for 3 to 5 minutes in an incubator. Then the cells were resuspended by the addition of fresh medium. The cells were counted, and the cell suspension was formulated to the corresponding density (U87MG cells: 500 cells/well; A-498 cells: 500 cells/well; A-375 cells: 300 cells/well; Calu-6 cells: 800 cells/well; detroit562 cells: 2000 cells/well; and CHO-K1 cells: 500 cells/well).
180 μL of cell suspension was added to a 96-well plate, and 200 μL of medium was added to the periphery of the 96-well plate. The plate was incubated for 24 hours in an incubator (37° C., 5% CO2).
as §4

[7] = tested on: Calu-6 cells; assay: In vitro cell proliferation test (CellTiter-Glo), Calu-6; format: cell-based; conditions: 6 days, CellTiter-Glo; read-out: IC50, inhibition of cell proliferation, Calu-6
Method: as §5, with “EMEM medium preparation: MEM medium (GE, CAT #SH30024.01), NEAA (sigma, CAT#M7145-100ML) and sodium pyruvate solution (sigma, CAT #S8636-100ML). […] Then” for “Then”

[8] = 1 mpk i.p. once a week for 3 times
[9] = 3 mpk i.p. once a week for 3 times

B1: ADC-2: antibody 1702DS coupled with compound 5-A; exemplary product of formula FADC-2 (conjugate)
heavy: QVQLVQSGGGVVQPGTSLRLSCAASGFIFSSSAMHWVRQAPGKGLEWVAVISYDGSNKYYVDSVKGRFTISRDNSKNTLYLQMNSLRAEDTAVYYCARSARLYASFDYWGQGALVTVSS[human IgG1 constant region not listed]
light: DTVVTQEPSFSVSPGGTVTLTCGLSSGSVSTSHYPSWYQQTPGQAPRMLIYNTNTRSSGVPDRFSGSILGNKAALTITGAQADDESDYYCAIHVDRDIWVFGGGTKLTVLGQPKANPTVTLFPPSSEELQANKATLVCLISDFYPGAVTVAWKADGSPVKAGVETTKPSKQSNNKYAASSYLSLTPEQWKSHRSYSCQVTHEGSTVEKTVAPTEC
IC50 [1]: 49.1 nM | IC50 [2]: > 500 nM | IC50 [3]: 31.6 nM | IC50 [4]: 419 nM | Averange tumor volume (mm^3) Day 0 [5, 8]: 182.65 mm^3 | Averange tumor volume (mm^3) Day 28 [5, 8]: 738.73 mm^3 | Relative tumor volume Day 28 [5, 8]: 4.16 | Tumor inhibition rate (%) on Day 28 [5, 8]: 44.26% | Averange tumor volume (mm^3) Day 0 [5, 9]: 182.59 mm^3 | Averange tumor volume (mm^3) Day 28 [5, 9]: 381.48 mm^3 | Relative tumor volume Day 28 [5, 9]: 2.07 | Tumor inhibition rate (%) on Day 28 [5, 9]: 72.27% | IC50 [6]: 33.3 nM | IC50 [7]: 70.6 nM
